Where a chain is given by its changes, count along the chain named. The list shows a part of the results.
T1: RBFOX1 RRM (Homo sapiens, UniProt Q9NWB1 109-208)
T1 sequence: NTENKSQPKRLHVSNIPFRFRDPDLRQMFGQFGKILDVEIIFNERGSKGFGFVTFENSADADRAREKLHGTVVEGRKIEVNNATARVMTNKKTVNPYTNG

B1: ACGCAGG (DNA:RNA)
RNA: GGGAGACCGGAAUUCAGAUUGUCCACGCAGGUUAAAUCCCGUCGUAGCCACCA
DNA 1: CAATCTGAATTCCGGTCTCCC
DNA 2: TGGTGGCTACGACGGGATT
B2: AGGAGCU (DNA:RNA)
RNA: B1 RNA with C26G, C28A, A29G, G30C, G31U
DNA 1: CAATCTGAATTCCGGTCTCCC
DNA 2: TGGTGGCTACGACGGGATT
B3: GCCAUUA (DNA:RNA)
RNA: B1 RNA with A25G, G27C, C28A, A29U, G30U, G31A
DNA 1: CAATCTGAATTCCGGTCTCCC
DNA 2: TGGTGGCTACGACGGGATT
B4: AAGAUGG (DNA:RNA)
RNA: B1 RNA with C26A, C28A, A29U
DNA 1: CAATCTGAATTCCGGTCTCCC
DNA 2: TGGTGGCTACGACGGGATT
B5: GUGUAUU (DNA:RNA)
RNA: B1 RNA with A25G, C26U, C28U, G30U, G31U
DNA 1: CAATCTGAATTCCGGTCTCCC
DNA 2: TGGTGGCTACGACGGGATT
B6: UAUUGCC (DNA:RNA)
RNA: GGGAGACCGGAAUUCAGAUUGUCCUAUUGCCUUAAAUCCCGUCGUAGCCACCA
DNA 1: CAATCTGAATTCCGGTCTCCC
DNA 2: TGGTGGCTACGACGGGATT
B7: UGACAGG (DNA:RNA)
RNA: B1 RNA with A25U, C26G, G27A
DNA 1: CAATCTGAATTCCGGTCTCCC
DNA 2: TGGTGGCTACGACGGGATT
B8: UCCCGUU (DNA:RNA)
RNA: B1 RNA with A25U, G27C, A29G, G30U, G31U
DNA 1: CAATCTGAATTCCGGTCTCCC
DNA 2: TGGTGGCTACGACGGGATT
B9: GGGUGCG (DNA:RNA)
RNA: B6 RNA with U25G, A26G, U27G, C31G
DNA 1: CAATCTGAATTCCGGTCTCCC
DNA 2: TGGTGGCTACGACGGGATT
B10: UAUGACA (DNA:RNA)
RNA: B6 RNA with U28G, G29A, C31A
DNA 1: CAATCTGAATTCCGGTCTCCC
DNA 2: TGGTGGCTACGACGGGATT
B11: UGAAUCG (DNA:RNA)
RNA: B6 RNA with A26G, U27A, U28A, G29U, C31G
DNA 1: CAATCTGAATTCCGGTCTCCC
DNA 2: TGGTGGCTACGACGGGATT
B12: CAGGUGC (DNA:RNA)
RNA: B1 RNA with A25C, C26A, C28G, A29U, G31C
DNA 1: CAATCTGAATTCCGGTCTCCC
DNA 2: TGGTGGCTACGACGGGATT
B13: GGCCAGA (DNA:RNA)
RNA: B1 RNA with A25G, C26G, G27C, G31A
DNA 1: CAATCTGAATTCCGGTCTCCC
DNA 2: TGGTGGCTACGACGGGATT
B14: CAGAUAU (DNA:RNA)
RNA: B1 RNA with A25C, C26A, C28A, A29U, G30A, G31U
DNA 1: CAATCTGAATTCCGGTCTCCC
DNA 2: TGGTGGCTACGACGGGATT
B15: UGUGCCC (DNA:RNA)
RNA: B6 RNA with A26G, U28G, G29C
DNA 1: CAATCTGAATTCCGGTCTCCC
DNA 2: TGGTGGCTACGACGGGATT
B16: UGUUUUG (DNA:RNA)
RNA: B6 RNA with A26G, G29U, C30U, C31G
DNA 1: CAATCTGAATTCCGGTCTCCC
DNA 2: TGGTGGCTACGACGGGATT
B17: AAUCCUG (DNA:RNA)
RNA: B1 RNA with C26A, G27U, A29C, G30U
DNA 1: CAATCTGAATTCCGGTCTCCC
DNA 2: TGGTGGCTACGACGGGATT
B18: ACCAUGA (DNA:RNA)
RNA: B1 RNA with G27C, C28A, A29U, G31A
DNA 1: CAATCTGAATTCCGGTCTCCC
DNA 2: TGGTGGCTACGACGGGATT
B19: AGCUGCU (DNA:RNA)
RNA: B6 RNA with U25A, A26G, U27C, C31U
DNA 1: CAATCTGAATTCCGGTCTCCC
DNA 2: TGGTGGCTACGACGGGATT
B20: AUCAAUA (DNA:RNA)
RNA: B1 RNA with C26U, G27C, C28A, G30U, G31A
DNA 1: CAATCTGAATTCCGGTCTCCC
DNA 2: TGGTGGCTACGACGGGATT
B21: ACCGAUA (DNA:RNA)
RNA: B1 RNA with G27C, C28G, G30U, G31A
DNA 1: CAATCTGAATTCCGGTCTCCC
DNA 2: TGGTGGCTACGACGGGATT
B22: CCGCUGG (DNA:RNA)
RNA: B1 RNA with A25C, A29U
DNA 1: CAATCTGAATTCCGGTCTCCC
DNA 2: TGGTGGCTACGACGGGATT
B23: UAGAGUU (DNA:RNA)
RNA: B6 RNA with U27G, U28A, C30U, C31U
DNA 1: CAATCTGAATTCCGGTCTCCC
DNA 2: TGGTGGCTACGACGGGATT
B24: ACGUCUC (DNA:RNA)
RNA: B1 RNA with C28U, A29C, G30U, G31C
DNA 1: CAATCTGAATTCCGGTCTCCC
DNA 2: TGGTGGCTACGACGGGATT
B25: ACAGUGG (DNA:RNA)
RNA: B1 RNA with G27A, C28G, A29U
DNA 1: CAATCTGAATTCCGGTCTCCC
DNA 2: TGGTGGCTACGACGGGATT
B26: CAUGCAC (DNA:RNA)
RNA: B6 RNA with U25C, U28G, G29C, C30A
DNA 1: CAATCTGAATTCCGGTCTCCC
DNA 2: TGGTGGCTACGACGGGATT
B27: UAAGCAC (DNA:RNA)
RNA: B6 RNA with U27A, U28G, G29C, C30A
DNA 1: CAATCTGAATTCCGGTCTCCC
DNA 2: TGGTGGCTACGACGGGATT
B28: CGUCCCA (DNA:RNA)
RNA: B6 RNA with U25C, A26G, U28C, G29C, C31A
DNA 1: CAATCTGAATTCCGGTCTCCC
DNA 2: TGGTGGCTACGACGGGATT
B29: CAGUAGC (DNA:RNA)
RNA: B1 RNA with A25C, C26A, C28U, G31C
DNA 1: CAATCTGAATTCCGGTCTCCC
DNA 2: TGGTGGCTACGACGGGATT
B30: AAUACCG (DNA:RNA)
RNA: B6 RNA with U25A, U28A, G29C, C31G
DNA 1: CAATCTGAATTCCGGTCTCCC
DNA 2: TGGTGGCTACGACGGGATT
B31: CCACAGU (DNA:RNA)
RNA: B1 RNA with A25C, G27A, G31U
DNA 1: CAATCTGAATTCCGGTCTCCC
DNA 2: TGGTGGCTACGACGGGATT

target: T1, RBFOX1 RRM; test: EMSA; HiTS-Eq, 1 nM pool, 10 min; buffer printed only for the single-RNA assays: 10 mM Tris pH 7.5, 150 mM NaCl, 3.4 mM EDTA, 0.001% NP-40, 30 C; conditions: tags: His6 N-terminal (pET28a); label: 5' 32P
Outline: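 Relative association constants, normalised to the cognate motif, were derived by comparing read counts of each RNA species with those of the control reaction. The RNA sequenced was the free fraction, separated by 8% native PAGE after a 10 min equilibration in 50 µL of 1 nM 5′-radiolabelled RNA (7 randomized nucleotides) with increasing concentrations of purified wild-type or mutant RbFox RRM.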

Row | Binder | binding signal
1 | B1 | 0.0124 KA relative to UGCAUGU
2 | B2 | 0.0158 KA relative to UGCAUGU
3 | B3 | 0.00314 KA relative to UGCAUGU
4 | B4 | 0.0118 KA relative to UGCAUGU
5 | B5 | 0.00736 KA relative to UGCAUGU
6 | B6 | 0.012 KA relative to UGCAUGU
7 | B7 | 0.0122 KA relative to UGCAUGU
8 | B8 | 0.0034 KA relative to UGCAUGU
9 | B9 | 0.023 KA relative to UGCAUGU
10 | B10 | 0.00481 KA relative to UGCAUGU
11 | B11 | 0.0144 KA relative to UGCAUGU
12 | B12 | 0.018 KA relative to UGCAUGU
13 | B13 | 0.0139 KA relative to UGCAUGU
14 | B14 | 0.00325 KA relative to UGCAUGU
15 | B15 | 0.0126 KA relative to UGCAUGU
16 | B16 | 0.0286 KA relative to UGCAUGU

Row | Binder | binding signal
17 | B17 | 0.00713 KA relative to UGCAUGU
18 | B18 | 0.00589 KA relative to UGCAUGU
19 | B19 | 0.0135 KA relative to UGCAUGU
20 | B20 | 0.000983 KA relative to UGCAUGU
21 | B21 | 0.00258 KA relative to UGCAUGU
22 | B22 | 0.0189 KA relative to UGCAUGU
23 | B23 | 0.0119 KA relative to UGCAUGU
24 | B24 | 0.00814 KA relative to UGCAUGU
25 | B25 | 0.0115 KA relative to UGCAUGU
26 | B26 | 0.00901 KA relative to UGCAUGU
27 | B27 | 0.0104 KA relative to UGCAUGU
28 | B28 | 0.00338 KA relative to UGCAUGU
29 | B29 | 0.0114 KA relative to UGCAUGU
30 | B30 | 0.00135 KA relative to UGCAUGU
31 | B31 | 0.00373 KA relative to UGCAUGU

Source: paper PMC9911399, “Two distinct binding modes provide the RNA-binding protein RbFox with extraordinary sequence specificity”
